The whole screen tested about 410,000 compounds, of which about 850 (0.21%) were called active. The shares of active, inactive and inconclusive entries below differ from those in the screen. Calls follow the shape of the dose curve; as a rule, active = well fitted inhibition curve with a large enough effect; inconclusive = small, poorly fitted or top-dose-only effect, or another doubt; inactive = no such curve, though single readings can be large or run the other way. No potency is given beside an inconclusive call; the fits are too rough.
The compounds below were run against Glutaminase kidney isoform, mitochondrial (Homo sapiens) (UniProt O94925) (assay: qHTS for Inhibitors of Glutaminase (GLS)). Details: GLS enzymatic activity, qHTS titration; series mostly up to 45.5 µM; activity change, negative = inhibition: at the top concentration.
Chain of UniProt O94925 (O94925 whole entry, looked up, canonical isoform): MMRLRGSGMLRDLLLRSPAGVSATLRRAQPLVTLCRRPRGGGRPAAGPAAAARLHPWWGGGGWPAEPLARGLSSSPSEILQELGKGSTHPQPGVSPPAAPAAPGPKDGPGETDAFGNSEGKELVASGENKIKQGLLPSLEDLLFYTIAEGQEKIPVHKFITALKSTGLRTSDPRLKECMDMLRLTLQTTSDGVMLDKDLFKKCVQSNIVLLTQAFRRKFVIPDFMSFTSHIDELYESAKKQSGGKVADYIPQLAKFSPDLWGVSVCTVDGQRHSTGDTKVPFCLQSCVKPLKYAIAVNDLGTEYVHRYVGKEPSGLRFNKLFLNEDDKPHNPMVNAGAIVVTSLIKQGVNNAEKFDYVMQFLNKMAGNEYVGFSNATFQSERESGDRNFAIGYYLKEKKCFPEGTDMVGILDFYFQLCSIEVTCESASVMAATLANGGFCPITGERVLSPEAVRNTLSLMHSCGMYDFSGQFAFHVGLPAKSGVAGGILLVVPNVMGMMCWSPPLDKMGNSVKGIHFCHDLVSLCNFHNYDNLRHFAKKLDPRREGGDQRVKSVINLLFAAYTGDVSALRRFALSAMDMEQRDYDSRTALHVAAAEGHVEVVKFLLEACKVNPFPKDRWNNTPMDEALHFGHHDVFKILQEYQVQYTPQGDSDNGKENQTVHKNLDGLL
Procedure, shortened: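 Read-out is an Amplex red fluorescence increase coupled through glutamate oxidase and HRP, measured before and after 30 min room-temperature incubation. hKGA is in 45 mM KH2PO4 (pH 8.2) with 0.02% Tween-20; glutamine added as 1mM solution.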
% is scaled to controls: 0 for no effect and ±100 for the full control effect; potency is read from the fitted curve at half-maximal effect; tags tell the direction and shape of the fitted curve.

SMILES	Potency	activity change, negative = inhibition
O=C(c1cc(-c2ccc(O)cc2)on1)N1CCCC1	inconclusive [inhibitor, partial curve]	–
COCCCn1c(Cc2csc(Nc3cccc(Cl)c3)n2)nnc1SCC(=O)OC	inconclusive [inhibitor, partial curve, poor fit]	–
Nc1ccc(-c2nc3c(Cl)c(N)ccc3[nH]2)cc1	inconclusive [inhibitor, partial curve]	–
Cc1ccc(C(=O)COC(=O)COc2ccccc2[N+](=O)[O-])s1	–	inactive: 1.59%
Cc1[nH]nc2c1C(c1cccs1)C1=C(CCCC1=O)N2 (stereo not given)	inconclusive [inhibitor, single point]	–
COc1ccc(N2CCN(CC(=O)c3ccccc3)CC2)cc1	inconclusive [inhibitor, single point]	–
C=CCN1CCN(C(c2ccccc2)c2nnnn2CCC(C)C)CC1 (stereo not given)	inconclusive [inhibitor, single point]	–
COc1cc(/C=C2\SC(=S)N(NS(=O)(=O)c3ccccc3)C2=O)cc(OC)c1OC	inconclusive [inhibitor, partial curve]	–
N#Cc1cnc2c(-c3ccccc3)c(-c3ccccc3)nn2c1N	inconclusive [inhibitor, single point]	–
O=C(NNS(=O)(=O)c1ccccc1)c1cccs1	inconclusive [inhibitor, partial curve]	–
O=C1CSC(=S)N1/N=C/c1cc(Br)c(O)c(Br)c1	inconclusive [inhibitor, single point]	–
O=S(=O)(c1ccc(Cl)cc1)N1CCC(O)(c2cccnc2)CC1	inconclusive [inhibitor, single point]	–
COc1ccc(C2NC(=O)NC(O)(C(F)(F)F)C2C(=O)c2ccccc2)cc1OC (stereo not given)	–	inactive: 8.19%
CSc1nc(N(CCO)CCO)c2sc3nc(-c4ccco4)c4c(c3c2n1)CCC4	active: 7.08 µM	–
COc1ccc(OCc2nnc3n2N=C(c2ccccc2)C(CC(=O)O)S3)cc1 (stereo not given)	inconclusive [inhibitor, single point]	–
O=C(O)/C=C/C(=O)NC1CCCCCCCCCCC1	inconclusive [inhibitor, single point]	–
S=c1nc(C2CCCCC2)n(-c2ccccc2)[nH]1	inconclusive [inhibitor, partial curve]	–
N#Cc1c(NC(=O)CSc2nnc(-c3ccco3)n2-c2ccccc2)sc2c1CCC2	–	inactive: 5.64%
CCOc1cc(C(c2c(C)[nH][nH]c2=O)c2c(C)[nH][nH]c2=O)ccc1OC(=O)c1cccc([N+](=O)[O-])c1	–	inactive: 55.8%
CCC(=O)OCCNc1cc(Sc2nc3ccccc3s2)c2nonc2c1[N+](=O)[O-]	inconclusive [inhibitor, full curve]	–
C/C(=N\Nc1cc(N2CCOCC2)ncn1)c1ccc(O)cc1	inconclusive [inhibitor, single point]	–
Cc1ccc2[nH]c3c(=O)n(N)c(=O)[nH]c3c2c1	inconclusive [inhibitor, partial curve, poor fit]	–
CC(=O)OC1(C(C)=O)CCC2C3CC(C(F)(F)F)C4=CC(=O)CCC4(C)C3CCC21C (stereo not given)	–	inactive: -1.42%

SMILES	Potency	activity change, negative = inhibition
CCOc1ccccc1C(=O)NCc1ccco1	inconclusive [inhibitor, partial curve, poor fit]	–
COc1ccc(C(=O)Cc2cc(OC)c(OC)cc2[N+](=O)[O-])c(OC)c1	active: 11.2 µM	–
CCc1ccc2[nH]c(=O)c(C(c3nnnn3CCOC)N3CCN(c4ccc(F)cc4)CC3)cc2c1 (stereo not given)	–	inactive: -3.41%
O=C(Nc1nc2cc3c(cc2s1)OCCO3)C1=COCCO1	inconclusive [inhibitor, single point]	–
Cc1cc(O)ccc1NC1=CC(=O)CC(C)(C)C1	inconclusive [inhibitor, partial curve]	–
Cc1cc(=O)oc2cc(OCC(=O)N/N=C/c3ccccc3O)ccc12	inconclusive [inhibitor, single point]	–
OC[C@@H](O)[C@H](O)C(/C=N/Nc1ccccc1)=N\Nc1ccccc1	inconclusive [inhibitor, single point]	–
Cc1c(NC(=O)OCCNC(=O)COc2ccc(Cl)cc2Cl)sc(=S)n1C	inconclusive [inhibitor, single point]	–
CC(NCC(O)COCc1ccc(Cl)cc1)c1ccccc1 (stereo not given)	inconclusive [inhibitor, single point]	–
O=[N+]([O-])c1cc(Cc2ccccc2)cc(C=Nc2ccc(N3CCOCC3)cc2)c1O	inconclusive [inhibitor, single point]	–
Oc1cc(CNC2CCCCC2)c(O)cc1CNC1CCCCC1	inconclusive [inhibitor, partial curve]	–
CCCCCCCCCCCCSCCOCCO	–	inactive: -3.24%
COc1ccccc1Nc1n[nH]c(=S)s1	active: 10 µM	–
CCCCn1cnc2cc(NCc3ccc(OCC)cc3)ccc21	inconclusive [inhibitor, partial curve, poor fit]	–
CCN(C(=O)Cn1c(=O)n(-c2ccccc2)c(=O)c2ccc(C(=O)NCc3ccc4c(c3)OCO4)cc21)c1cccc(C)c1	–	inactive: -2.91%
COc1ccc(Oc2nc(-c3ccccn3)nc3ccccc23)cc1	inconclusive [inhibitor, single point]	–
O=C(/C=C/c1cccc(Cl)c1Cl)OCC(=O)N1CCOCC1	–	inactive: 1.04%
N#CCC(=O)Nc1sc2c(c1C(N)=O)CCCC2	inconclusive [inhibitor, partial curve]	–
COc1ccc(Nc2cc(C(=O)NCCCN3CCOCC3)c3ccccc3n2)c(OC)c1	–	inactive: 25.4%
COc1ccccc1OC(C)C(=O)Nc1cccc(-c2nc3ccccc3o2)c1 (stereo not given)	–	inactive: -7.17%
Cc1cc(C)n2c(=S)[nH]nc2n1	inconclusive [inhibitor, single point]	–
CCN(Cc1ccccc1)C(=O)c1cnn(-c2ccc(F)cc2)c1-n1cccc1	–	inactive: -2.81%

— PubChem BioAssay AID624170 (National Center for Advancing Translational Sciences (NCATS), 2012)
